Molecular target: T1, Munc13-4 (wild type, His6-tagged human Munc13-4) (human, UniProt Q70J99 1-1090)
T1 sequence: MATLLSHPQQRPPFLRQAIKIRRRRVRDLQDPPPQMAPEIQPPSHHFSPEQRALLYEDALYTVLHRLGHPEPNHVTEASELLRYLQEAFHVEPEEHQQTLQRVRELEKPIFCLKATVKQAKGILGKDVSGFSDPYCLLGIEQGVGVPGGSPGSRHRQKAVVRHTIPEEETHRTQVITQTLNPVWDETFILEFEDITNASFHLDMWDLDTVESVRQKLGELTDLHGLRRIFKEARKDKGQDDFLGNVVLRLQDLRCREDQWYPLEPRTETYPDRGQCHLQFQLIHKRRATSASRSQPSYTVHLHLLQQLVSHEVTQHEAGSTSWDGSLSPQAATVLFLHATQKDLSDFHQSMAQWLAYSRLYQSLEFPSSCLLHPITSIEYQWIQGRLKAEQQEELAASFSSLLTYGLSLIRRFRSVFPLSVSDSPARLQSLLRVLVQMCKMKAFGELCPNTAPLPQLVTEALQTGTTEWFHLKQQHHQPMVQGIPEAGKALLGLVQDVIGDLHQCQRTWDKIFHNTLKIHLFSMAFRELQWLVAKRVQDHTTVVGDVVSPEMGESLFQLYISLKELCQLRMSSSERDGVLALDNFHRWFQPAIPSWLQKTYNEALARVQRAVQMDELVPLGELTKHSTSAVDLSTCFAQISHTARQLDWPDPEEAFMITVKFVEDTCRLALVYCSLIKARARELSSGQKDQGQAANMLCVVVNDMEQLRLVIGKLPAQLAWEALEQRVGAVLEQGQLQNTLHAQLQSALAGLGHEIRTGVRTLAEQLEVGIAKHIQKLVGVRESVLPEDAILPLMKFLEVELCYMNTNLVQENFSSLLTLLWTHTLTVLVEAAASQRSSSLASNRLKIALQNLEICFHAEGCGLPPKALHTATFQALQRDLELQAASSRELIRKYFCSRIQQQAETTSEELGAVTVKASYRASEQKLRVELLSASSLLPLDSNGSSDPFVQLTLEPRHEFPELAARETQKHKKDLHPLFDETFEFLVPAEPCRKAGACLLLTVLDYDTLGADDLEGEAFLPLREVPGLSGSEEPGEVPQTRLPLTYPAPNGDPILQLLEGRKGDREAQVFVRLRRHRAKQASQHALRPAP
Assay: SPR

B1: syntaxin-1([…]), H3 domain protein (domain or fragment)
chain: not shown
binding result: binds
